Assay results taken from ChEMBL document CHEMBL1157539, “Thousands of chemical starting points for antimalarial lead identification” (Nature, 2010).
Over roughly 13,000 compounds, “IFI” has its median near 4; the highest 2% begin near 17. The list shows a part of the results.

test: GSK_TCMDC: Inhibition Frequency Index (IFI). The number of non-kinase HTS assays where a compound showed > 50 % inhibition, expressed as a percentage of the number of such assays in which the compound was tested (-0 is zero); assay type: functional

Row | SMILES | IFI
1 | CC(C)Sc1nc2c(c(=O)n1Cc1ccco1)C1(CCCC1)Cc1ccccc1-2 | 2.86%
2 | Cc1cc(OCCCn2ccnc2)ccc1-c1csc(/N=C(\N)NCc2ccccc2)n1 | 5%
3 | N#Cc1ccc(-c2cnc3ccc(NCCc4cccnc4)nn23)cc1 | 6.02%
4 | CC(=O)Nc1cccc(C(=O)Nc2cccc(-c3ccc(-c4nc5cccc(C)c5[nH]4)cc3)c2)c1 | 6.09%
5 | Cc1cccc(CN2CCCN(Cc3cccc(C(=O)Nc4ccc(C(C)(C)C)cc4)c3)CC2)c1 | 10.7%
6 | CS(=O)(=O)c1ccc2nc(NC(=O)c3csnn3)sc2c1 | -0%
7 | Nc1nc(N)c2c(ccc3c2ccn3Cc2ccc(Br)cc2)n1 | 12.6%
8 | CCc1c(CCNC/C=C/C=C/CNCCc2ccc(OC)c(OC)c2CC)ccc(OC)c1OC | 8.51%
9 | COc1cccc(NC(=O)NC2CCN(c3ccnc(Nc4ccc(F)cc4)n3)C2)c1 (configuration not stated) | 1.54%
10 | Cc1cccc2nc(-c3cccc(-c4ccc(C(=O)NCc5nccn5C)cc4)c3)[nH]c12 | 1.83%
11 | COc1ccc(C2CC(c3ccccc3O)=NN2C(=O)c2ccco2)cc1OC (configuration not stated) | 3.57%
12 | Cn1c(-c2ccccc2)cc2c3c(=O)cc(C(F)(F)F)[nH]c3ccc21 | 4.71%
13 | Cc1cnc(NCC2CCCCC2)nc1N[C@@H](CC(C)C)C(=O)Nc1ccccc1 | 13.3%
14 | COc1ccc(-n2nc(C)cc2C(=O)NCc2ccc(-c3c(C)noc3C)cc2)cc1 | 4.29%
15 | COc1ccc(CN2CCC2=O)c(OC)c1 | 0.74%
16 | COc1cccc2c(NN=Cc3ccccc3Cl)cc(C)nc12 | 8.7%
17 | CCCCCCCN(CCCCCCC)CCCC(=O)Nc1ccnc2ccc(OC)cc12 | 7.87%
18 | CN1CCN(c2ccc(Nc3nccc(-c4cnn5ncccc45)n3)cc2Cl)CC1 | 13.5%
19 | Fc1cccc(C=NNc2ccnc3cc(Cl)ccc23)c1 | 2.22%
20 | CCN(CC)CCNc1ccnc2[nH]c3ccc(I)cc3c12 | 3.01%
21 | O=C(Nc1cccc(OC2CCN(Cc3ccsc3)CC2)c1)c1ccc(C(F)(F)F)cc1 | 5.19%
22 | Cc1cccc2nc(-c3cccc(-c4cccc(NC(=O)CNc5ccc(C(N)=O)cc5)c4)c3)[nH]c12 | 6.73%
23 | CCCCN1CCCC[C@H]1[C@@H](O)c1ccnc2ccc(OCC)cc12 | 1.5%

Row | SMILES | IFI
24 | CCCCNCc1ccc(-c2nc(CN(Cc3ccc(Cl)c(Cl)c3)C(=O)CN(C)C)cs2)cc1 | 7.53%
25 | CO/N=C(\C)c1ccc2c(c1)CCN(CCC1CCC(NC(=O)c3cccc(-c4noc(C)n4)c3)CC1)CC2 (configuration not stated) | 3.5%
26 | CN(C)CCCOc1cccc(CCNCc2cccc(Oc3ccc(Cl)cc3)c2)c1 | 5.97%
27 | O=C(NC1CCN(Cc2ccccc2O)C1)c1ccc(-c2ccccc2)cc1 (configuration not stated) | 4.29%
28 | CCn1c(-c2nc(-c3ccnc(N4CCN(C)CC4)c3)cnc2N)nc2cc(S(C)(=O)=O)ccc21 | 0%
29 | Cc1cc(C(=O)OCC(N)=O)c(C)n1-c1ccc(F)cc1 | 0%
30 | COc1cccc2cc(C(=O)N[C@@H](CC(C)C)C(=O)N[C@H](C=NN3CC(=O)NC3=O)CC(C)C)oc12 | 2.75%
31 | CCOc1cc(N)c2nc3ccc([N+](=O)[O-])cc3cc2c1 | 6.47%
32 | Cc1cccc2nc(-c3ccc(-c4ccc(CN5CCN(c6cnccn6)CC5)cc4)s3)[nH]c12 | 4.23%
33 | COc1ccccc1CC1CCCN(C2CCC(NC(=O)c3cc4ccccc4[nH]3)CC2)C1 (configuration not stated) | 4.48%
34 | O=C(c1ccc([N+](=O)[O-])o1)N1CCC(Cc2ccc(C(F)(F)F)cc2)CC1 | 9.52%
35 | CC(C)(C)NC(=O)COC(=O)c1c2c(nc3ccccc13)C(=Cc1ccc3c(c1)OCO3)CCC2 | 6.9%
36 | Cc1cnc(C(=O)Nc2cccc(-c3ccc(-c4nc5cc(C(F)(F)F)ccc5[nH]4)s3)c2)cn1 | -0%
37 | Nc1ccc2[nH]cc(C3CCN(CC4CCC(NC(=O)/C=C/c5ccccc5Cl)CC4)CC3)c2n1 (configuration not stated) | 4.44%
38 | CCc1sc(N2CCN(C)CC2)nc1C(=O)NCCc1ccc(Cl)c(Cl)c1 | 1.92%
39 | Cc1ccccc1C1CCN(C2CCC(NC(=O)/C=C/c3cccc(C(F)(F)F)c3)CC2)CC1 (configuration not stated) | 13.1%
40 | COc1ccc(C(=O)Nc2ccc3nc(N4CCCCC4)cc(C)c3c2)cc1[N+](=O)[O-] | 9.89%
41 | COc1cccc(COCC(O)CN(CCc2ccccn2)C(=O)c2ccccc2F)c1 (configuration not stated) | 0%
42 | O=C(CC(=O)C(F)(F)F)c1ccc2c(c1)OCO2 | 1.42%
43 | O=C(COc1cnc2ccccc2n1)Nc1ccccc1Sc1ccc(Cl)cc1 | 2.27%
44 | Nc1nccc2ccc(-c3cccc(O)c3)cc12 | 7.14%
45 | c1ccc2[nH]c(-c3ccc(-c4ccc(CNC5CC5)cc4)s3)nc2c1 | 2.97%
46 | COc1nc2c(CCN3CCC(NCc4ccc5c(n4)NC(=O)CO5)CC3)c(Cl)cnc2cc1F | 4.32%

Row | SMILES | IFI
47 | CCOC(=O)CN(c1ccc(Br)cc1OCCOc1cc(Br)ccc1N(CC(=O)OCC)C(C)C(=O)OCC)C(C)C(=O)OCC (configuration not stated) | 0.75%
48 | COc1ccc2c(ccc3c2ncc2c(=O)n(-c4ccccc4)[nH]c23)c1 | 0%
49 | Oc1ccc(CCNc2nc(NCc3ccccc3-c3ccc(F)cc3)nc(N3CCNCC3)n2)cc1 | 13.6%
50 | CC(=O)Nc1ccc2[nH]cc(C3CCN(CCC4CCN(C(=O)/C=C/c5ccc(Cl)c(Cl)c5)CC4)CC3)c2c1 | 2.92%
51 | Cc1c2ccc(N(C)c3ccnc(Nc4ccc5c(c4)nc(NC(C)C)n5C)n3)cc2nn1C | 7.3%
52 | CO/C(=C\C=C\c1cc2cc(Cl)c(Cl)cc2[nH]1)C(=O)NCCCN1CCN(c2cccc(CCCO)c2)CC1 | 12.8%
53 | COc1cccc(CC(=O)N2CCC(n3c(C)nc4ccc(C)cc43)CC2)c1 | 0%
54 | Oc1ccc2[nH]c(-c3cccs3)nc2c1CN1CCC(O)(c2ccccc2)CC1 | 1.02%
55 | Cc1cc(O)c(-c2ccc(OCc3ccc(Cl)cc3)cc2)c(C)n1 | 0.76%
56 | CCC(=O)c1c(C)n(-c2ncnc3c2nc(C)n3-c2ccc(C)cc2C)c2ccccc12 | 1.67%
57 | Cc1nc(C)c(-c2ccc(Oc3ccc(Cl)c(Cl)c3)cc2)c(O)c1Cl | 3.82%
58 | O=C(/C=C/c1ccc(Cl)c(Cl)c1)NCCCCCN1CCCC(C(=O)Nc2cccc(Cl)c2)C1 (configuration not stated) | 14.9%
59 | CCCOc1ccc(C(=O)Nc2nonc2-c2ccc(OC)c(OC)c2)cc1 | 0.94%
60 | CC(NC(=O)c1ccc(O)c(-c2ccc(Cl)c(Cl)c2)c1)C(=O)NCCN1CCOCC1 (configuration not stated) | 1.48%
61 | Cc1[nH]c(C)c([N+](=O)[O-])c(=O)c1-c1ccc(Oc2ccc(OC(F)(F)F)cc2)cc1 | 0.85%
62 | CS(=O)(=O)CCNCc1ccc(-c2ccc3c(Nc4ccc(Cl)cc4F)ccnc3c2)o1 | 5.88%
63 | CCN(CC)CCN(Cc1ccc(-c2ccc(C(F)(F)F)cc2)cc1)C(=O)Cn1c(CCC2CCCCC2)nc(=O)c2ccccc21 | 6.11%
64 | Cc1nc(-c2ccc(-c3ccc(C(=O)Nc4ccc(C(C)C)c(OCCN(C)C)c4)cc3)c(C)c2)no1 | 8.4%
65 | CCC[C@@H]([C@@H](CC1CCCCC1)C(=O)N[C@H](C(=O)Nc1nccs1)C(C)(C)SCCNC(=O)OCC)N(O)C=O | 5.84%
66 | CN1CCN(Cc2nc(-c3ccc4c(Nc5ccc(Oc6ccccc6)cc5)ccnc4c3)cs2)CC1 | 5.19%
67 | COc1ccc(OC)c2c1CCN(C)C2Cc1cccc2ccccc12 (configuration not stated) | 2.16%
68 | Cc1cnc(-c2ccc(NC(=O)N3CCc4cc5nccc(N6CCN7CCC[C@H]7C6)c5cc43)c3ccccc23)o1 | 4.2%
69 | COc1ccccc1NC(=O)NC1CCN(CCCCCNC(=O)/C=C/c2ccc(Cl)c(Cl)c2)CC1 | 4.32%

Row | SMILES | IFI
70 | Oc1ccc(Br)cc1-c1nc2ccc(Cl)cc2nc1-c1cc(Br)ccc1O | 4.32%
71 | O=C(NCCc1ccccc1)N(Cc1ccccc1-c1ccc(CNC2CCCC2)cc1)C1CCN(Cc2ccccc2)CC1 | 7.25%
72 | CCN(c1cc(C)nc(Nc2ccc(Cl)cc2)n1)[C@H]1CCN(Cc2ccccc2)C1 | 7.23%
73 | CC(=O)N(C)c1cccc(C(=O)Nc2cccc(-c3cccc(-c4nc5cccc(C)c5[nH]4)c3)c2)c1 | 3.48%
74 | COc1ccc(CCNCCCCCCNCCc2ccc(Cl)c3ccccc23)cc1OC | 9.42%
75 | Nc1ccc(-c2csc(Nc3ccncc3)n2)cc1 | 1.49%
76 | O=C(N[C@H](CC1CCCCC1)C(=O)NC1CCCc2ccccc21)c1ccc(O)c(-c2cccc([N+](=O)[O-])c2)c1 (some centres not stated) | 0.7%
77 | O=C(Nc1ccc(Cl)cc1)c1ccc(CN2CCCN(CC3CCCCC3)CC2)cc1 | 9.45%
78 | O=C(NC1CC1)c1ccc(N2CCC(Oc3ccc(F)cc3)CC2)nc1 | -0%
79 | COc1ccccc1Cn1ccnc1SCC(=O)Nc1cccc(C(F)(F)F)c1 | 2.38%
80 | c1ccc(C2=NN=C(c3ccccn3)C3C4CC(C23)C2C3CC(c5ccccc53)C42)nc1 (configuration not stated) | 8.89%
81 | Cc1ccc(C(NC(=O)C2CCCCC2)c2ccc3cccnc3c2O)cc1 (configuration not stated) | 7.08%
82 | CC(=O)N[C@H](C(=O)Nc1cccc(-c2ccc(-c3nc4cccc(C)c4[nH]3)s2)c1)C(C)C | 4.55%
83 | COc1ccc2c(NN=Cc3cccc(F)c3)ccnc2c1 | 4.9%
84 | O=C(/C=C/c1ccc(Cl)c(Cl)c1)N1CCC(CCN2CCC(c3c[nH]c4cnccc34)CC2)CC1 | 13.5%
85 | CC1CC(C)CN(CCCNc2ccc(C(=O)Nc3ccc(C(F)(F)F)cc3)cc2[N+](=O)[O-])C1 (configuration not stated) | 4.44%
86 | CCN(CC)c1ccc2nc(N)nc(N)c2c1Cl | 1.47%
87 | CCn1c(-c2nonc2N)nc2c(-c3cccc(NC(=O)Nc4ccc(C#N)cc4)c3)ncc(OCCCN)c21 | 15.7%
88 | Cc1cc(N2CC=CCC2)nc(NC(=N)Nc2ccc(Br)cc2)n1 | 1.47%
89 | CCN1CCN(c2cc(C)c3cc(NC(=O)c4ccc(C(C)(C)C)cc4)ccc3n2)CC1 | 4.7%
90 | C=C(F)c1sc(CNCCCNc2nc3ccccc3[nH]2)c(C)c1Br | 2.21%
91 | COc1ccc(NC(=O)CCNc2cc(C)nc(NCCOc3ccccc3)n2)cc1 | 4.88%
92 | Cc1ccc(-c2nc(NC(=O)Nc3ccc(C(F)(F)F)cc3)sc2C)cc1Cl | 6.16%
